Experimental data as given in article PMC12136788.
The other results are listed elsewhere or left out.

B1: chr4:95690885:95690886:+_ENSMUSG00000028572_ENSMUST00000156910|mus_mus|mus_mus_mus_hu_False|8_8 (ssRNA)
RNA: GGGAGUUCUACAGUCCGACGAUCUUUAGAAAAUGUUAAAUACCAUGCUAAAAUAUUUUCAAAGGCUUAUUUUAUUUUACCAGAAGUCACAGGCAAGCAGACACUACAAGAAUAUAUGAAAAUGAAACAACAGUGUAUAACUGUCAACAGAGGAUUGAGCAUCA
B2: chr13:30959905:30959906:-_ENSMUSG00000021357_ENSMUST00000021785|mus_hu|motif|central (ssRNA)
RNA: GGGAGUUCUACAGUCCGACGAUCAUGGAUACUUCCAAACAAGUCAGGGGAAGAAACAUCAACAGAGAGAUGUGUAGUAUCGGUAUCUGCAUCAGGCUUGGUGCUCAACUGUUCCAGACAGUAUAUAAAAACCUGCAUUAUAUUCAACAGAGGAUUGAGCAUCA
B3: chr1:25167287:25167288:+_ENSG00000169504_ENST00000374379|hu_hu|FALSE|FALSE (ssRNA)
RNA: GGGAGUUCUACAGUCCGACGAUCACUGUAUGCAUUAGUUAGGUAUCUCCAGAUGCCAGUCAUUUCUUUUGGAAUAUCAAAGUUGCGAUAUUUUUUGGCCACCACCUUGACAAUAUGCAGUUUGGGCAGCAGGUUGCAAUCAGCCAACAGAGGAUUGAGCAUCA
B4: chr4:40680873:40680874:+_ENSMUSG00000028410_ENSMUST00000030118|mus_mus|FALSE|FALSE (ssRNA)
RNA: GGGAGUUCUACAGUCCGACGAUCAUUCUGAUAUCCAGAUUUAAGCAUGUAAGCAUGUGACUUCAAAACAUACAACAAAUCUAUUCAUAAUUUGCUAUACUACCAACAUUAAAUUGCAGUUACGUUGGAGCCUAAGUCGAAUAGCAACAGAGGAUUGAGCAUCA
B5: chr1:225611761:225611762:-_ENSG00000143815_ENST00000272163|hu_mus|hu_hu_hu_mus_True|58_58 (ssRNA)
RNA: GGGAGUUCUACAGUCCGACGAUCCCAGGCCAUCGGCCUCUGACCACUUCACCCUCAACAAACUUCCUACUUGGCAUUUUCUAUAAUUAGUCUGGCCGCGCUCCGGCGGGAACUCCAGCCACUCCAGGACAGUCACCAGCAGCCCAACAGAGGAUUGAGCAUCA
B6: chr4:3761713:3761714:-_ENSMUSG00000028234_ENSMUST00000103009|mus_mus|FALSE|FALSE (ssRNA)
RNA: GGGAGUUCUACAGUCCGACGAUCCUCAACUCCCGGCUCAAUACUGAUGGAAGUAAUCUGCUUAACAAUCUCAGAAGGACUAUGUAAAUCAAUGAGUCGCUUGUGGAUCCUCAUCUGGAAUCGAUCCCAGGUCUUGGAACCUUCCAACAGAGGAUUGAGCAUCA
B7: chr8:30040655:30040656:+_ENSG00000104671_ENST00000221114|hu_mus|FALSE|FALSE (ssRNA)
RNA: GGGAGUUCUACAGUCCGACGAUCAACCGAGCACCACUGACAUCUUCUCAGUUCUUAACUGGGGUUGAGCUGCCUUUCAUCGUCUUCUUCAGGUGGUGGUAAUUGGGCAAGAUCUUCAUCAGGAAAUCCAGUUGUAGAGUCUGGCAACAGAGGAUUGAGCAUCA
B8: chr11:103723314:103723315:-_ENSMUSG00000034187_ENSMUST00000103075|mus_hu|FALSE|FALSE (ssRNA)
RNA: GGGAGUUCUACAGUCCGACGAUCCACCAGCAGCUCCCCAUCAUCUAGAACUCGAGUAACUGGGUCACCCCAUUUGAUGAUACCGUUCAUAAUGUAACUUGCAUAAUCUUCUUGGUUUGUGCCAAAGGCUGGUUUGAUAUCAUUCAACAGAGGAUUGAGCAUCA
B9: chr6:55002191:55002192:+_ENSMUSG00000029777_ENSMUST00000003572|mus_mus|FALSE|FALSE (ssRNA)
RNA: GGGAGUUCUACAGUCCGACGAUCGUGGUCUGCUCGGAAGCACUCUCCGUUCUUCACGUCCUUCACCAUGAAGUCAGCAAAUUUGUCUACGUGGCCAGAGGUCUUUAAAACUGGCUCAGGGGUGAGCAUGGUGCAGUCAAUCUCCAACAGAGGAUUGAGCAUCA
B10: chr4:115894766:115894767:+_ENSMUSG00000028698_ENSMUST00000030464|mus_hu|mus_mus_mus_hu_True|58_98 (ssRNA)
RNA: GGGAGUUCUACAGUCCGACGAUCUUCCACACGGAAAGUACUUGGGGGUUUUCCAACGGCCAGUACCAGUCCGGCCAACUACUAGGAACAGGGUCCUCCCCCUCUCUCCUACAGAACACAACAAAAUGCCCCCGAACUUUCAAGCAACAGAGGAUUGAGCAUCA
B11: chr11:4040516:4040517:+_ENSMUSG00000003581_ENSMUST00000003677|mus_mus|FALSE|FALSE (ssRNA)
RNA: GGGAGUUCUACAGUCCGACGAUCUCUCCUGUAGUGUAGGCUGGGAAGGGUCCGUCCCGAACUGCAGACUUUCCACUGGGGCAGUUAGUCAUCUGAGUAGUGGUUCCCCAGGACGUUGAACUUGCACAGUGGGCAGGUCUGUUGCAACAGAGGAUUGAGCAUCA
B12: chr2:125074910:125074911:+_ENSMUSG00000027203_ENSMUST00000082122|mus_mus|FALSE|FALSE (ssRNA)
RNA: GGGAGUUCUACAGUCCGACGAUCCUUUACAGCCAAGCCAGAACGUGGAGCUACUCUUCCAUAGCACCCAGAAGGGACAGCUAUCUGAAUGUCUGUCUUCACGAUGGCUUUCUCCAUGGGUGAUAUUGUAUAAUCAUAGGCACUCAACAGAGGAUUGAGCAUCA
B13: chr16:16313726:16313727:-_ENSMUSG00000022789_ENSMUST00000023477|mus_mus|motif|central (ssRNA)
RNA: GGGAGUUCUACAGUCCGACGAUCAUACAUUGAUUAUGUGAGGAACUUGCCAGGCUCCAUCUUUUAAAGCCAGGUCAGUCGGUAUAAAUAGUGCAUGCAUUAUAGUCAUGAAAUGUCCUGGAGCUUCCUUUCUGAGGACUACAGCAACAGAGGAUUGAGCAUCA
B14: chr5:64942916:64942917:+_ENSG00000113597_ENST00000231526|hu_hu|FALSE|FALSE (ssRNA)
RNA: GGGAGUUCUACAGUCCGACGAUCAGCAUUGGAGGCUGAAAGAUUUAAACGCUGAGAACUUGUCUGAAGAUCAGCUUUUACUAAUAUGUCUUUUACAACUUGAUUGCUAUCAUUAUGAACGCUGAUAUAACUGGAAAAGGUCUCCAACAGAGGAUUGAGCAUCA
B15: chr11:4749296:4749297:-_ENSMUSG00000009073_ENSMUST00000109910|mus_mus|FALSE|FALSE (ssRNA)
RNA: GGGAGUUCUACAGUCCGACGAUCGCAGCCCCGAGCUUGGAGCUUCGGGCUGGGGACGCCAGGGACGCCUUUGGACAGAAAUCCUAGACGGCUGCGGCGCCGACGCCGGGCCUCUCAGCGACCCCCGAGGGUCGCGGGGCCGCGCAACAGAGGAUUGAGCAUCA
B16: chr8:74704862:74704863:-_ENSG00000104343_ENST00000602593|hu_hu|FALSE|FALSE (ssRNA)
RNA: GGGAGUUCUACAGUCCGACGAUCACUGGCUUUCAGUUUUAAGCCCAAAUUGAUUCAUAUAUUCACUGCAGGAUAUUUCAAAAAGAGUGCAACAAUAAGGCAUUAGUAAAAAUAACAUUGUAGUAGAAACAGAUUUUGCAUAUGCAACAGAGGAUUGAGCAUCA
B17: 71361155_71361795_1258_CDS_ENSG00000124383_ENST00000244230|human|control|control (ssRNA)
RNA: GGGAGUUCUACAGUCCGACGAUCUUUAUUGUCUUCAUUUUCUUGAAGGUCAUCAUCUUCAUCCGUUUCCGAAAUACUUAGUUCUUCUGCUUCUUCUUCAGCAAUUUCAUCAUCUUCUUUGUUUGAAUCCAGCUCAUCAUCAUGCAACAGAGGAUUGAGCAUCA
B18: chr8:26875701:26875702:-_ENSMUSG00000037316_ENSMUST00000038498|mus_hu|FALSE|FALSE (ssRNA)
RNA: GGGAGUUCUACAGUCCGACGAUCCAGGACGUAGGCAUGAUAGCUAAAUGCAAGGCUGGGUCUUGGAACAGUAAAAGGACAUUAGUGAAAAGACUAAAAUCUCUACUUUUUAAACUUUCUACUUUAGUUAGUAUUAUAUCAAGGCAACAGAGGAUUGAGCAUCA
B19: 35108640_35115693_214_5pUTR_ENSG00000005238_ENST00000378566|human|control|control (ssRNA)
RNA: GGGAGUUCUACAGUCCGACGAUCUGCCUCGUGCCCCUAGCUUGCAGUCUGAUCCAUGCCUGCUGCACUGGCAAGGUGACUGCCACCAUUCCGUGCAGCUCCUGAGCUCAGCAGGACCCUUGUUGCCCACACAUUGAGUCCCCACAACAGAGGAUUGAGCAUCA
B20: chr1:89340274:89340275:+_ENSMUSG00000048000_ENSMUST00000174671|mus_hu|motif|central (ssRNA)
RNA: GGGAGUUCUACAGUCCGACGAUCUUUGGCACGGCGCUCAAGGAACUGCUUGGCAAACUCCUUGGCCUCAGAAGUAUCUCCGGAAUAGGCCCUGAUAUAAUCAUGGACCUCAUAAGGAGAUUCUACUUCUUUCAGGAAAGAAACCAACAGAGGAUUGAGCAUCA
B21: 103801465_103801585_240_5pUTR_ENSG00000100664_ENST00000558506|human|control|control (ssRNA)
RNA: GGGAGUUCUACAGUCCGACGAUCUUUAAGGGCAACCUAGGGAACUGUUCUCUACAACUAAUCGUUGCUUCGGCAACCAUGGCUUACUUCAAAGCAGCACUUCCUUAAACGCAGCGCUCGCCCACAAUUUGCCAUUAAGCAAGACAACAGAGGAUUGAGCAUCA
B22: chr13:31722556:31722557:-_ENSG00000120694_ENST00000320027|perfect_dup|FALSE|FALSE (ssRNA)
RNA: GGGAGUUCUACAGUCCGACGAUCUUCAUGAACACCUUCAGUAUCUUCUGAAUCAUGGUUCCAGAUCAGAGAUAUUGGAAAAGGAACUGCAUCUGUGACGGAAAAUUCUCUAACUUUAAAUGCCGGGGAAAGUAUUGCACACUGCAACAGAGGAUUGAGCAUCA

These binders were tested against T1, UNK ZnF1-3 (human, UniProt Q9C0B0 31-174) (assay: nsRBNS (natural sequence RNA bind-n-seq); RBNS binding buffer (assumed for nsRBNS): 25 mM Tris pH 7.5, 150 mM KCl, 3 mM MgCl2, 0.01% Triton X-100, 500 ug/ml BSA, 20 U/ml SUPERase-In, 4 C; UNK is unkempt and MSI1 is Musashi-1; names of the RNAs are library labels; protein concentration not given here; high values mean tight binding).
T1 sequence: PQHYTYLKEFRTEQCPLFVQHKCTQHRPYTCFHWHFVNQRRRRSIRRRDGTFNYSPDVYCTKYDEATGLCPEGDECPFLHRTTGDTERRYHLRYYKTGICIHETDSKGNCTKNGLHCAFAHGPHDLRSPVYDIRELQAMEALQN

Binder	binding signal
B1	2.01 enrichment R
B2	1.01 enrichment R
B3	1.29 enrichment R
B4	0.48 enrichment R
B5	1.26 enrichment R
B6	1.1 enrichment R
B7	1.47 enrichment R
B8	0.925 enrichment R
B9	0.913 enrichment R
B10	1.22 enrichment R
B11	0.442 enrichment R
B12	0.705 enrichment R
B13	0.798 enrichment R
B14	1.36 enrichment R
B15	0.596 enrichment R
B16	1.78 enrichment R
B17	0.293 enrichment R
B18	1.22 enrichment R
B19	0.77 enrichment R
B20	0.621 enrichment R
B21	0.72 enrichment R
B22	1.13 enrichment R
